Experimental findings from PubChem BioAssay AID1745853 (National Center for Advancing Translational Sciences (NCATS), 2022) are described below.

The other results are listed elsewhere or left out. These are further read-outs of the screen, such as a control signal, another cell line or another target. No call is given for them.

Common to all, as to test: Primary Screen for Target Class Profiling of Small Molecule Inhibitors of Methyltransferases
Experiment [1] deals with Glycine N-methyltransferase (Homo sapiens) (UniProt Q14749). The conditions noted are these: purified enzyme, MTase-Glo SAH luminescence; measured here: GNMT inhibition; at 40 µM; stronger effect = lower value. From the text: (§1) PI: Matthew D. Hall Ph.D. and Quinlin M. Hanson Ph.D.
(§2) National Center for Advancing Translational Sciences (NCATS)
(§3) National Institute of Health (NIH), Rockville, MD
(§4) Target class profiling (TCP) is a chemical biology approach amenable to investigating understudied biological targets. TCP is achieved by developing a generalizable assay platform and applying it to screen a curated set of compound libraries against representative members of a target class. Small molecule methyltransferases (SMMTase) are a subclass of methyltransferase that act on metabolites to modulate signaling pathways, metabolize xenobiotics, or balance the available methyl pool. We screened four curated libraries totaling 27,574 unique compounds against the SMMTases nicotinamide N-methyltransferase (NNMT), phenylethanolamine N-methyltransferase (PNMT), histamine N-methyltransferase (HNMT), glycine N-methyltransferase (GNMT), catechol O-methyltransferase (COMT), and guanidinoacetate N-methyltransferase (GAMT). The data generated by this TCP can be leveraged for informed tool molecule development. For example, in the associated publication we identified a chemotype of HNMT-selective inhibitors. Additionally, we identified a putative SMMTase-selective inhibitor with potential as a tool molecule for studying broader methyltransferase biology.
(§5) High-through put screening assays were developed at the National Center for Advancing Translational Science (NCATS) for the enzymes NNMT, PNMT, HNMT, GNMT, COMT, and GAMT. Enzymatic activity was measured as a function of SAM cofactor conversion using the MTase Glo kit (Promega) for all enzymes. All assays were performed in 1536-well format with substrates and SAM concentrations at KM values. Enzyme concentration and assay timing were optimized for 10-20% SAM conversion. Initial screening of 27,574 compounds was done as single-point assays using the highest compound concentration (40 uM). […] These compounds were replated in 11-point dose response and assayed against NNMT, PNMT, HNMT, GNMT, COMT, GAMT, and a counter-assay. The IC50 and efficacy (maximal response) values were determined for each dose-response curve. These values are also accounted for in the area under the curve (AUC) values.
(§6) PROTOCOL TABLE (as described by Inglese J, Shamu CE and Guy RK. 2007)
(§7) SEQUENCE No. (e.g., 1, 2, 3, etc.); […] (e.g., Cells, Incubation, Reagent, etc.); VALUE; DESCRIPTION.
(§8) 1; Reagent; 2 uL; SMMTase Enzyme (2x) in reaction buffer, columns 1- 48.
(§9) 2; Reagent; 1 uL; SAM (4x) in reaction buffer, columns 1-48.
(§10) 3; Controls; 23 nL; DMSO in column 4; sinefungin in DMSO (0 uM - 40 uM) in 7-point 1:2 dilution series (n = 2) in column 2.
(§11) 4; Compounds; 23 nL; Columns 5-48.
(§12) 5; Reagent; 1 uL; Substrate (4x) in reaction buffer, columns 2-48.
(§13) 6; Time; 20-30 min; Incubation.
(§14) 7; Reagent; 1 uL; MTase-Glo reagent (5X), columns 1-48.
(§15) 8; Time; 30 min; Incubation.
(§16) 9; Reagent; 5 uL; MTase-Glo Detection reagent, columns 1-48.
(§17) 10; Time; 30 min; Incubation, luminescence evolution.
(§18) 11; Detection; Luminescence; ViewLux uHTS Microplate Imager (PerkinElmer).
(§19) NOTES (numbers refer to Sequence numbers above)
(§20) 1, 2, 5. White Medium Binding Greiner 1536-well plates (Cat #789175-F, Greiner Bio-One, Monroe, NC); Reaction buffer: 50 mM Tris, pH 8.0, 3 mM MgCl2, 1 mM EDTA, 50 mM NaCl, 1 mM DTT, and 0.1 mg/mL BSA. Evaporation was prevented by covering assay plates with metal lids containing holes to allow gas diffusion.
(§21) 1. Six SMMTase were profiled: HNMT, GNMT, PNMT, COMT, NNMT, GAMT
(§22) 5. The corresponding substrate was used for each enzyme: HNMT - 5.3 uM Histamine; GNMT - >500 uM Glycine; PNMT - 16.2 uM Norephinephrine; COMT - 13.7 uM Norephinephrine; NNMT - 3.8 uM Nicotinamide; GAMT - 2.5 uM Guanidinoacetate.6, 8, 10. Room temperature
(§23) 6. Final reaction conditions: 10 nM COMT, 5 uM SAM, 15 uM norepinephrine, 50 mM Tris, pH 8.0, 3 mM MgCl2, 1 mM EDTA, 50 mM NaCl, 1 mM DTT, and 0.1 mg/mL BSA; refer to tables 2 and S1 for specific timing.
8. […]

Experiment [2] has as its target Guanidinoacetate N-methyltransferase (Homo sapiens) (UniProt Q14353). Conditions: purified enzyme, MTase-Glo SAH luminescence; measured here: GAMT inhibition; at 40 µM; stronger effect = lower value.
From the text: as §1, §2, §3, §4, §5, §6, §7, §8, §9, §10, §11, §12, §13, §14, §15, §16, §17, §18, §19, §20, §21, §22, §23
8. […]

In experiment [3] the target is Histamine N-methyltransferase (Homo sapiens) (UniProt P50135). Conditions: purified enzyme, MTase-Glo SAH luminescence; measured here: HNMT inhibition; at 40 µM; stronger effect = lower value.
From the text: as §1, §2, §3, §4, §5, §6, §7, §8, §9, §10, §11, §12, §13, §14, §15, §16, §17, §18, §19, §20, §21, §22, §23
8. […]

For experiment [4], the target named is Nicotinamide N-methyltransferase (Homo sapiens) (UniProt P40261). The conditions noted are these: purified enzyme, MTase-Glo SAH luminescence; measured here: NNMT inhibition; at 40 µM; stronger effect = lower value.
From the text: as §1, §2, §3, §4, §5, §6, §7, §8, §9, §10, §11, §12, §13, §14, §15, §16, §17, §18, §19, §20, §21, §22, §23
8. […]

Experiment [5] concerns the target Phenylethanolamine N-methyltransferase (Homo sapiens) (UniProt P11086). The conditions noted are these: purified enzyme, MTase-Glo SAH luminescence; measured here: PNMT inhibition; at 40 µM; stronger effect = lower value.
From the text: as §1, §2, §3, §4, §5, §6, §7, §8, §9, §10, §11, §12, §13, §14, §15, §16, §17, §18, §19, §20, §21, §22, §23
8. […]
% is set by controls: 0 for no effect and ±100 for the full control effect.

Regarding `Cc1cccc(OCC(=O)N2CCCC(c3[nH]ccc3C(N)=O)C2)c1` (stereo not given), the activity change, negative = inhibition in experiment [1] was -3.04%; in experiment [2], -0.905%; in experiment [3], 1.73%; in experiment [4] it was 0.504%; in experiment [5], 2.22%.
As to `Cc1ccc(NS(=O)(=O)c2cc3c(cc2C)n(C)c(=O)n3C)cc1Cl`, the activity change, negative = inhibition in experiment [1] is 9.58%; in experiment [2], 0%; in experiment [3] it was 8.4%; in experiment [4] it was -5.95%; in experiment [5], 6.22%.
Regarding `C/C=C/C=C/C=C/C(=O)O[C@@H]1C=C(CO)C(O)(C(=O)OC)[C@@]2(C)CCCC(C)(C)C12` (stereo not given in full), the activity change, negative = inhibition is -1.02% in experiment [1]; 4.8% in experiment [2]; 4.99% in experiment [3]; -9.98% in experiment [4]; -3.03% in experiment [5].
Turning to `CCCN1C(=O)c2cc(C(=O)NCCc3cccs3)nn2CC1(C)C(=O)NC1CCCC1` (stereo not given), the activity change, negative = inhibition in experiment [1] is 1.06%; in experiment [2], 1.18%; in experiment [3], -9.26%; in experiment [4], 6.43%; in experiment [5], 1.1%.
For `OC[C@H]1O[C@@H](OC[C@H]2O[C@@H](OC/C=C/c3ccccc3)[C@H](O)[C@@H](O)[C@@H]2O)[C@@H](O)[C@@H]1O`, the activity change, negative = inhibition in experiment [1] is -3.33%; in experiment [2], 0.668%; in experiment [3], 3.4%; in experiment [4], -13.1%; in experiment [5], -0.317%.
With `CCOc1ccc(C(=O)NC2CCN(c3cc(-c4ccc(OC)cc4)[nH]n3)C2)cc1OCC` (stereo not given), the activity change, negative = inhibition in experiment [1] is -5.45%; in experiment [2], -0.549%; in experiment [3], -2.2%; in experiment [4], -10.1%; in experiment [5] it was -3.08%.
In the case of `O=C(Nc1ccc(Cl)cc1)C1CCCN(C(=O)c2cccc(-c3ccco3)c2)C1` (stereo not given), the activity change, negative = inhibition is -6.77% in experiment [1]; -23.7% in experiment [2]; 6.73% in experiment [3]; -39% in experiment [4]; -13.6% in experiment [5].
Consider `CC(C)N1C[C@@H](CO)[C@H](c2nc(-c3cccnc3)no2)C1`, for which the activity change, negative = inhibition in experiment [1] was -1.48%; in experiment [2] it was 2.5%; in experiment [3], -12.9%; in experiment [4] it was -0.143%; in experiment [5], 3%.
Take `Cc1nnc2n1C(C)CN(C(=O)CCn1cnc3ccccc3c1=O)C2` (stereo not given): the activity change, negative = inhibition is -0.954% in experiment [1]; -0.807% in experiment [2]; -0.332% in experiment [3]; 0.442% in experiment [4]; -2.05% in experiment [5].
For `CC1(C(=O)NC2CCCCC2)Cn2c(cc3occc32)C(=O)N1C1CCN(Cc2ccccc2)CC1` (stereo not given), the activity change, negative = inhibition in experiment [1] was -0.748%; in experiment [2], 0.493%; in experiment [3] it was -1.28%; in experiment [4] it was 3.7%; in experiment [5], -0.33%.
Consider `CCN(CC)C(=O)CC1Sc2ncccc2N(CC(C)C)C1=O` (stereo not given), for which the activity change, negative = inhibition in experiment [1] is -0.921%; in experiment [2], 2.15%; in experiment [3] it was 2.71%; in experiment [4], -7.44%; in experiment [5], 15.4%.
For the molecule `O=C(Cc1ccccc1)Nc1ccc2n(c1=O)C[C@H]1C[C@@H]2CN(S(=O)(=O)c2ccc(Cl)cc2)C1`, the activity change, negative = inhibition in experiment [1] is -5.3%; in experiment [2] it was -2.57%; in experiment [3] it was -7.34%; in experiment [4], -12.4%; in experiment [5], -5.31%.
The corresponding values for `CCCN1C(=O)c2c(C(=O)NCc3ccc(OCC)cc3)ncn2CC1(C)C(=O)NCc1ccc(F)cc1` (stereo not given) are 3.4%, 2.56%, 2.78%, 8.84% and 6.92%.
On the same counts, the results for `CCn1c(-c2nonc2N)nc2cncc(CNC3CCNCC3)c21` are -5.35%, -7.41%, -5.75%, -18.6% and -8.28%.
